Test results: the supplement of paper PMC9938546
Structures can show the parent of a compound that is named as a salt. Some of the results follow. Most values come without repeats; read them as rough.

The molecules below were run on HCT116-GFP (assay: HCT116-GFP viability (GFP intensity) relative to untreated control, monoculture; higher = less cancer cell killing). Conditions: culture: HCT116-GFP monoculture; 10 µM; 72 h.
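Further: viability estimated indirectly by image-based GFP quantification with live-cell imaging of the constitutively GFP-expressing human colorectal cancer line, no immune cells added.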

Row | Compound | HCT116-GFP viability
1 | CC[N+](CC)(CC)CCOc1cccc(OCC[N+](CC)(CC)CC)c1OCC[N+](CC)(CC)CC [Gallamine triethiodide] | 96.9%
2 | CCOC(=O)[N-]c1c[n+](N2CCOCC2)no1 [Molsidomine] | 91.8%
3 | CC(C)(C)NCC(O)c1cc(O)cc(O)c1 (stereo not drawn) [Terbutaline hemisulfate] | 90.5%
4 | NS(=O)(=O)c1cc2c(cc1Cl)NC(CC1CCCC1)NS2(=O)=O (stereo not drawn) [Cyclopenthiazide] | 107%
5 | CN[C@@H]1[C@H](O[C@H]2[C@H](O[C@H]3[C@H](O)[C@@H](O)[C@H](NC(=N)N)[C@@H](O)[C@@H]3NC(=N)N)O[C@@H](C)[C@]2(O)CO)O[C@@H](CO)[C@H](O)[C@H]1O [Dihydrostreptomycin sulfate] | 92.4%
6 | NCc1ccc(S(N)(=O)=O)cc1 [Mafenide hydrochloride] | 85.9%
7 | CCc1oc2ccccc2c1C(=O)c1cc(Br)c(O)c(Br)c1 [Benzbromarone] | 101%
8 | CC/C(=C(\c1ccccc1)c1ccc(OCCN(C)C)cc1)c1ccccc1 [Tamoxifen citrate] | 82.7%
9 | CCCCC[C@H](O)/C=C/[C@H]1[C@H](O)CC(=O)[C@@H]1CCCCCCC(=O)O [Alprostadil] | 95.5%
10 | CCN1CCC[C@H]1CNC(=O)c1c(O)c(Cl)cc(Cl)c1OC [Raclopride] | 82.7%
11 | CCOc1ccc(NC(C)=O)cc1 [Phenacetin] | 94.1%
12 | CN1CCC[C@@H]1CCO[C@](C)(c1ccccc1)c1ccc(Cl)cc1 [Clemastine fumarate] | 60.5%
13 | COc1cc2ncnc(Nc3ccc(F)c(Cl)c3)c2cc1OCCCN1CCOCC1 [Gefitinib] | 57.5%
14 | CC(C(=O)O)c1ccc(C(=O)c2cccs2)cc1 (stereo not drawn) [Suprofen] | 113%
15 | CN1CCC(OC(c2ccccc2)c2ccccc2)CC1 [Diphenylpyraline hydrochloride] | 101%
16 | O=C(Oc1cccc2cccnc12)c1ccccc1 [Benzoxiquine] | 44.3%
17 | Clc1ccc(Nc2nnc(Cc3ccncc3)c3ccccc23)cc1 [Vatalanib] | 62.6%
18 | Fc1ccc([C@@H]2CCNC[C@H]2COc2ccc3c(c2)OCO3)cc1 [Paroxetine Hydrochloride] | 62.6%
19 | Nc1nc(O)c2ncn(CCC(CO)CO)c2n1 [Penciclovir] | 107%
20 | CN(C/C=C/C#CC(C)(C)C)Cc1cccc2ccccc12 [Terbinafine] | 64.9%
21 | O=c1[nH]cnc2c1ncn2[C@H]1CC[C@@H](CO)O1 [Didanosine] | 94.1%
22 | NCCC[C@H](N)CC(=O)N[C@H]1CNC(=O)[C@H]([C@H]2C[C@H](O)NC(N)=N2)NC(=O)/C(=C/NC(N)=O)NC(=O)[C@H](CO)NC(=O)[C@H](CO)NC1=O [Viomycin sulfate] | 15.7%
23 | NC(CO)C(=O)NNCc1ccc(O)c(O)c1O (stereo not drawn) [Benserazide hydrochloride] | 45.7%
24 | CN(C)CCCN1c2ccccc2CCc2ccccc21 [Imipramine hydrochloride] | 92.1%
25 | O=C1c2cccc3c2[C@H](CCC3)CN1[C@@H]1CN2CCC1CC2 [Palonosetron hydrochloride] | 85%

Row | Compound | HCT116-GFP viability
26 | NCC[C@H](O)C(=O)N[C@@H]1C[C@H](N)[C@@H](O[C@H]2O[C@H](CN)[C@@H](O)[C@H](O)[C@H]2O)[C@H](O)[C@H]1O[C@H]1O[C@H](CO)[C@@H](O)[C@H](N)[C@H]1O [Amikacin hydrate] | 93.8%
27 | CC(C)CN(C[C@@H](O)[C@H](Cc1ccccc1)NC(=O)O[C@H]1CO[C@H]2OCC[C@H]21)S(=O)(=O)c1ccc(N)cc1 [Darunavir] | 101%
28 | OCCN1C[C@H](O)[C@@H](O)[C@H](O)[C@H]1CO [Miglitol] | 107%
29 | CC(C)C(=O)Nc1ccc([N+](=O)[O-])c(C(F)(F)F)c1 [Flutamide] | 88.3%
30 | Cn1cnc([N+](=O)[O-])c1Sc1ncnc2[nH]cnc12 [Azathioprine] | 53.2%
31 | C[C@@]1(O)CCOC(=O)C1 [Mevalonic-D, L acid lactone] | 88.3%
32 | COCC(=O)Nc1c(I)c(C(=O)NCC(O)CO)c(I)c(C(=O)N(C)CC(O)CO)c1I (stereo not drawn) [Iopromide] | 95.8%
33 | O=C(O)CCCC[C@@H]1SC[C@@H]2NC(=O)N[C@@H]21 [Biotin] | 98.5%
34 | CC1COc2c(N3CCN(C)CC3)c(F)cc3c(=O)c(C(=O)O)cn1c23 (stereo not drawn) [Ofloxacin] | 109%
35 | CC(=O)SCC(Cc1ccccc1)C(=O)NCC(=O)OCc1ccccc1 (stereo not drawn) [Racecadotril] | 101%
36 | C[C@H](CCC(=O)O)[C@H]1CC[C@H]2[C@@H]3CC[C@@H]4C[C@H](O)CC[C@]4(C)[C@H]3CC[C@]12C [Lithocholic acid] | 105%
37 | COC(=O)C1=C(C)NC(C)=C(C(=O)OC(C)C)C1c1cccc2nonc12 (stereo not drawn) [Isradipine] | 87.8%
38 | CC(C)NCC(O)c1cc(O)cc(O)c1 (stereo not drawn) [Metaproterenol sulfate, orciprenaline sulfate] | 100%
39 | O=C(O)CN(CCN(CC(=O)O)CC(=O)O)CCN(CC(=O)O)CC(=O)O [Pentetic acid] | 103%
40 | C#CCN(C)CCCOc1ccc(Cl)cc1Cl [Clorgyline hydrochloride] | 93.2%
41 | Cn1c(=O)c2c(ncn2CCO)n(C)c1=O [Etofylline] | 96.6%
42 | COc1ccccc1N1CCN(CCCNc2cc(=O)n(C)c(=O)n2C)CC1 [Urapidil hydrochloride] | 99.1%
43 | COc1nc(N)nc2c1ncn2[C@@H]1O[C@H](CO)[C@@H](O)[C@@H]1O [Nelarabine] | 103%
44 | CCC(=O)OCC(=O)[C@@]1(OC(=O)CC)[C@@H](C)C[C@H]2[C@@H]3CCC4=CC(=O)C=C[C@]4(C)[C@@]3(Cl)[C@@H](O)C[C@@]21C [Beclomethasone dipropionate] | 91.9%
45 | CCN(CC)Cc1cc(Nc2ccnc3cc(Cl)ccc23)ccc1O [Amodiaquin dihydrochloride dihydrate] | 47.3%
46 | CC(=O)OCC1=C(C(=O)O)N2C(=O)[C@@H](NC(=O)Cc3cccs3)[C@H]2SC1 [Cephalothin sodium salt] | 107%
47 | Clc1ccc(C(Cn2ccnc2)OCc2csc3c(Cl)cccc23)c(Cl)c1 (stereo not drawn) [Sertaconazole nitrate] | 46.4%
48 | CCN(CC)CCNC(=O)COc1ccc(OC)cc1 [Mefexamide hydrochloride] | 101%
49 | CC1(C)S[C@@H]2[C@H](NC(=O)Cc3ccccc3)C(=O)N2[C@H]1C(=O)O [Benzathine benzylpenicillin] | 99.2%
50 | CC1(C)S[C@@H]2[C@H](NC(=O)Cc3ccccc3)C(=O)N2[C@H]1C(=O)O [Benzylpenicillin sodium] | 110%

Row | Compound | HCT116-GFP viability
51 | CCCCc1nc(Cl)c(CO)n1Cc1ccc(-c2ccccc2-c2nnn[nH]2)cc1 [Losartan] | 102%
52 | O=C1NCCN1CCN1CCC(c2cn(-c3ccc(F)cc3)c3ccc(Cl)cc23)CC1 [Sertindole] | 7.4%
53 | O=C1CCC(N2C(=O)c3ccccc3C2=O)C(=O)N1 (stereo not drawn) [Thalidomide] | 90.6%
54 | O=C1OC(CN2CCOCC2)CN1/N=C/c1ccc([N+](=O)[O-])o1 (stereo not drawn) [Furaltadone hydrochloride] | 93.8%
55 | CNCCCN1c2ccccc2CCc2ccccc21 [Desipramine hydrochloride] | 84%
56 | C[n+]1ccccc1/C=N/O [Pralidoxime chloride] | 102%
57 | CCC(C)n1ncn(-c2ccc(N3CCN(c4ccc(OCC5COC(Cn6cncn6)(c6ccc(Cl)cc6Cl)O5)cc4)CC3)cc2)c1=O (stereo not drawn) [Itraconazole] | 59.9%
58 | Cc1cccc(Nc2ccccc2C(=O)O)c1C [Mefenamic acid] | 85.2%
59 | O=C(O)CCNC(=O)c1ccc(/N=N/c2ccc(O)c(C(=O)O)c2)cc1 [Balsalazide Sodium] | 121%
60 | CC(CN(C)C)CN1c2ccccc2Sc2ccccc21 (stereo not drawn) [Trimeprazine tartrate] | 75.3%
61 | CC1(C)[C@@H](OC(=O)CCC(=O)O)CC[C@]2(C)[C@H]3C(=O)C=C4[C@@H]5C[C@@](C)(C(=O)O)CC[C@]5(C)CC[C@@]4(C)[C@]3(C)CC[C@@H]12 [Carbenoxolone disodium salt] | 103%
62 | N=C(N)NCCN1CCCCCCC1 [Guanethidine sulfate] | 112%
63 | C#C[C@]1(O)CC[C@H]2[C@@H]3CCC4=CC(=O)CC[C@@H]4[C@H]3CC[C@@]21CC [Norgestrel-(-)-D] | 104%
64 | C=CCOC(Cn1ccnc1)c1ccc(Cl)cc1Cl (stereo not drawn) [Enilconazole] | 102%
65 | CC(=O)OCC(=O)[C@@]1(OC(C)=O)[C@@H](C)C[C@H]2[C@@H]3C[C@H](F)C4=CC(=O)C=C[C@]4(C)[C@@]3(F)[C@@H](O)C[C@@]21C [Diflorasone Diacetate] | 108%
66 | CC[C@@H](CO)NCCN[C@@H](CC)CO [Ethambutol dihydrochloride] | 96.9%
67 | CC(CN(C)C)C(C)(O)Cc1ccc(Cl)cc1 (stereo not drawn) [Clobutinol hydrochloride] | 104%
68 | C[C@]1(Cn2ccnn2)[C@H](C(=O)O)N2C(=O)C[C@H]2S1(=O)=O [Tazobactam] | 113%
69 | CCCOc1ccc(C(=O)OCCN(CC)CC)cc1N [Proparacaine hydrochloride] | 111%
70 | C=CCSCC1Nc2cc(Cl)c(S(N)(=O)=O)cc2S(=O)(=O)N1 (stereo not drawn) [Althiazide] | 119%
71 | c1ccc(CN(CC2=NCCN2)c2ccccc2)cc1 [Antazoline hydrochloride] | 99.6%
72 | CN(C)CC/C=C1/c2ccccc2COc2ccc(CC(=O)O)cc21 [Olopatadine hydrochloride] | 99.5%
73 | CC(C(=O)O)c1ccc(C(=O)c2ccccc2)s1 (stereo not drawn) [Tiaprofenic acid] | 93.7%
